No constants are given. Whether binding was seen depends on the method and setting. For part of these data: Binding seen in cells or lysates may run through a third protein. Some entries that bind do so weakly or less than the wild type. For part of these data: Where a sequence is shown, tags or fusion partners need not be part of it.
How the values were obtained:
GST-E1A (adenovirus) = GST-E1A (adenovirus) (UniProt P03254); test: pull-down; GST fusion proteins charged on glutathione-agarose beads, incubated with purified H6-CtBP2 or H6-RR-CtBP2 (~0.1 μg) in 200 μl of 25 mM Tris-HCl pH 7.5, 0.25 M NaCl, 0.5% Triton X-100, 0.5 mM DTT for 1 h at 4°C; Western blot with the CtBP2 antibody; both purified
[1] = target: Flag-HA-tagged CtBP2 A58E (UniProt P56545); test: cross-linking; HeLa cells transfected with Flag-HA-tagged CtBP constructs, treated with DSS one day after transfection; Western blot with the Flag antibody
[2] = target: Flag-HA-tagged CtBP2 (wild type) (UniProt P56545); test: co-IP; Flag-HA-tagged CtBP proteins transiently expressed in 293 cells; lysates immunoprecipitated with the Flag antibody; Western blots of endogenous co-factors
[3] = target: Flag-HA-tagged GG-CtBP2 (G189A/G192A) (UniProt P56545); test: as above
[4] = target: Flag-HA-tagged RR-CtBP2 (R147L/R169L) (UniProt P56545); test: as above
[5] = target: Flag-HA-tagged CtBP2 (wild type) (UniProt P56545); test: co-IP; HeLa cells transfected with Flag-HA-tagged CtBP2 or RR-CtBP2 alone or with GFP-ZEB101 (also in increasing amounts) or GFP-Cter; lysates immunoprecipitated with Flag antibody beads; Western blots
[6] = target: Flag-HA-tagged RR-CtBP2 (R147L/R169L) (UniProt P56545); test: as above
GST-ZEB101 = target: T1, GST-ZEB101 (UniProt P37275); test: pull-down; GST fusion proteins charged on glutathione-agarose beads, incubated with purified H6-CtBP2 or H6-RR-CtBP2 (~0.1 μg) in 200 μl of 25 mM Tris-HCl pH 7.5, 0.25 M NaCl, 0.5% Triton X-100, 0.5 mM DTT for 1 h at 4°C; Western blot with the CtBP2 antibody; both purified
T1 sequence: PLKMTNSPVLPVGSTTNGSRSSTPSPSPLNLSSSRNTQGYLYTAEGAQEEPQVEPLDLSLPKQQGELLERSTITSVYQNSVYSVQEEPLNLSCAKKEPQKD

Amino acid sequences for entries named in this document (tags omitted). A change or cut given only in a name is not applied to a line headed by its entry.
UniProt Q92769: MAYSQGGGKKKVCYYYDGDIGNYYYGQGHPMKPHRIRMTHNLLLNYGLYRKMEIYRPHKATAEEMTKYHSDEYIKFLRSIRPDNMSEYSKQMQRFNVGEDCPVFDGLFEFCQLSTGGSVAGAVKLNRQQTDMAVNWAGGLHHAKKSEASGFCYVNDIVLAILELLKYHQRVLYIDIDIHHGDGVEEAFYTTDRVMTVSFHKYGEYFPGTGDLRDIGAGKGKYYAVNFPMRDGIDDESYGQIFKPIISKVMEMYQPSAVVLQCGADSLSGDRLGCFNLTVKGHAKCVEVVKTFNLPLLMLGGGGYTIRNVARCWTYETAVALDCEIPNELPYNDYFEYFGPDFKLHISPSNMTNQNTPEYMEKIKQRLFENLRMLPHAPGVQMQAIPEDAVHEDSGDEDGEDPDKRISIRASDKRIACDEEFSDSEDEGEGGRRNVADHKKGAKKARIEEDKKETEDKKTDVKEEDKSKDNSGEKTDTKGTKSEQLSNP

[7] = target: Flag-HA-tagged GG-CtBP2 (G189A/G192A) (UniProt P56545); test: cross-linking; HeLa cells transfected with Flag-HA-tagged CtBP constructs, treated with DSS one day after transfection; Western blot with the Flag antibody
[8] = target: Flag-HA-tagged GG-CtBP2 (G189A/G192A) (UniProt P56545); test: co-IP; HeLa cells co-transfected with the HBH-tagged and the Flag-HA-tagged copy, 5 μM biotin; lysates adsorbed to streptavidin-agarose beads; FH copy detected with a CtBP2 antibody; no cross-linking

H6-CtBP2 (from UniProt P56545 1-445)
binding (GST-E1A (adenovirus)): binds

Flag-HA-tagged CtBP2 A58E (from UniProt P56545 1-445)
binding [1]: binds

histone deacetylase 2 (HDAC2), endogenous (from UniProt Q92769 1-488) (enzyme)
binding [2]: binds
binding [3]: binds
binding [4]: binds
binding [5]: binds
binding [6]: binds

adenovirus E1A, endogenous in 293 cells (from UniProt P03255 1-289)
binding [4]: no binding

H6-RR-CtBP2 (from UniProt P56545 1-445)
binding (GST-E1A (adenovirus)): no binding (tested: ~0.1 μg in 200 μl)
binding (GST-ZEB101): binds

Flag-HA-tagged GG-CtBP2 (G189A/G192A) (from UniProt P56545 1-445)
binding [7]: binds
binding [8]: binds

From publication PMC2749851
